Data as given in the supplement of paper PMC11417369.
This is one part of the list.

Each sequence was assayed on PfHDP1 homeodomain (GST-tagged) (assay: gcPBM binding intensity (ln(normalized median fluorescence intensity)); higher = stronger DNA binding).
Outline: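 After 1 h on an Agilent 4 × 180k array of primer-extended double-stranded 36-bp intergenic genomic probes and negative controls, bound GST-tagged P. falciparum DNA-binding domains were detected with Alexa488 anti-GST antibody and scanned at 488 nm. The domains had been expressed in E. coli, and binding took place in 1× PBS with 1% milk, 0.2 mg/ml BSA, 0.5% salmon testes DNA and 0.03% Triton X-100. Binding intensity is the highest Masliner-normalised natural-log median intensity across replicate spots of either probe orientation.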

Sequence	gcPBM binding intensity (ln)
AATATTTGCCTATGTTGTACTGACATTTTTTTAAGT [XGTACX_site6836]	6.57
TTATATTTTTTAATTACACACAATTCTTATAAATAT [CACACA_site7870]	6.6
TATTATAACTAAAAAAATCACATAAAATACTTTATT [CACACA_negctrl_site2]	5.56
TTAACCTTTATATAATACGTATCATCCTCATATATA [CACACA_negctrl_site86]	7.17
ATATAAAATCAACAAAAAAAAAAAATATATATATAT [XGTACX_negctrl_site251]	9.1
TGTATATATTTGTGCACACCAAAGTTTGATTTTATT [CACACA_site1860]	11.4
TATTTATTATAAAAATTGTATAAAATAATAATGCTC [GTGCAC_negctrl_site456]	6.35
GTTATTAAAAACGGGTGTACACATATATAAATATAT [XGTACX_site1234]	7.35
TTCTCATCCTTACATACACACACATATATATATATA [CACACA_site7914]	9.31
TATAATCATAAATACACACACATATATATATATATA [CACACA_site5224]	9.31
GTTCAATTATTTTTATGTACATATATTTTTTTCTTT [XGTACX_site2505]	7.13
AAATTGGGGCTTGTTACACACTTAGTGTGAGTTCTA [CACACA_site6417]	6.6
ATTTATAATATGTATACACACACATATATAAATATA [CACACA_site8729]	6.7
ACAAATGAGATTATATGTACACATAACAAATTTACA [XGTACX_site3496]	6.54
AAATGTAAAATTTTATGTACATATATTTATATAATA [XGTACX_site3737]	6.39
GTTACACCAACAAACACACACACACCGACACCCAAA [CACACA_site5361]	6.93
ATGTTTTATAAAAGGCGTACACATATATTTAAGTAA [XGTACX_site6231]	6.85
TTTATTTATTTAATTACACACGAACATATAACCATT [CACACA_site7952]	6.8
TAAAAAAAAAAAAAAGTACACACTTATAAAATATTA [CACACA_site872]	5.96
ATATATTTTTTGAATACACACATATTATATGTAATA [CACACA_site1256]	6.61
TTTCACAAATGATATAGTACTTTTTATTATTAACAT [XGTACX_site7976]	6.12
ACTTTTTTAATGTTACGTACACATAAATAATAATTA [XGTACX_site8092]	6.94
TTCATTCTATAAAACACACAAATATTTTTGTATCCC [CACACA_site6458]	6.78

Sequence	gcPBM binding intensity (ln)
ATATATTTTAATGATACACACAAGAAATAAAATTAC [CACACA_site5671]	6.63
ATAGAACAATTCAGAAGTACATAAAAAGAAAAATTT [XGTACX_site3015]	6.28
TTGGATGATTAAGGGGGACACACGTTTATATATTTA [CACACA_site338]	7.3
TTTTGTGATCTTACCACCTTTCATAATATTAATAAA [GTGCAC_negctrl_site360]	6.72
TATATAATAAAAAAAAGTACTTGGACAATATTATTT [XGTACX_site2802]	6.47
ATCAAAATATTTATATGTACATATTAAAAATATAGA [XGTACX_site725]	6.41
TTAATTTACATGAACTGTACATAACATTTTTTTAAA [XGTACX_site4672]	6.15
AAATAGCCAAAAATCATGCACACCTAAAAAAAAAAA [CACACA_site2572]	8.16
TATATATATATATATTGTACATATATTATTATATAT [XGTACX_site7447]	9.22
ATATTGGAGCACAACACACACAAGTATATATATGGA [CACACA_site1546]	8.52
CATACATACAAACACACACACACACCGATATATATA [CACACA_site8952]	7.1
CACATACAGACATACACACACATATATATTAATATA [CACACA_site546]	7.24
AATTCTCTTAATAAATAAACACAAATAAATAATAAA [GTGCAC_negctrl_site499]	6.39
ATCAACATCTAACATTGTACATGTGATGTGTAAAAG [XGTACX_site547]	6.69
ATATTTGCCCAAGATAGTACATATATATATATATAT [XGTACX_site7756]	9.3
ATAAATAAATAAATAAATAAATAAATAAATATATAT [CACACA_negctrl_site1728]	6.24
TCTTTTTCTTGACGAGTGCAAAAATTGTGTTTGAAA	9.06
ATTTATTTTATATGTTGTACAAACATTTTAAAACAT [XGTACX_site6919]	6.47
CTAATATCTGTATGCACACACAATAAATACATATTT [CACACA_site5797]	9.73
TTTTTTTAAAGAATTATCATAAAATGATTGCATCAT [XGTACX_negctrl_site141]	6.34
AATGCCTTGTTGAGGTGTACTGAATGTTATTTTAAT [XGTACX_site3255]	6.16
TTAACATATTTGTTAGTGCATTTTGATATTACACAT [GTGCAC_site9978]	8.55
AAAAAAATTAAATGTACACACACCTTAAACAATGTC [CACACA_site1855]	6.3

Sequence	gcPBM binding intensity (ln)
TCAGTAATACTTGAATGTACTTATATTGTTTGTTTG [XGTACX_site6449]	6.17
CCTATATTAAAACAAGCACACAATCGCATAATATCC [CACACA_site9052]	6.75
AAGGAAATATAATATACACACATAAGTGTACTTATA [CACACA_site4030]	6.35
ATTATATATCCCTATTCACACATGTATTATATAAAT [CACACA_site5486]	7.06
TAATAAAGTGAATAATGTACATTTTATTTATTATAT [XGTACX_site6614]	6.31
GAAAAATTAAAAATAACACACACATATATATATTTA [CACACA_site8896]	6.38
TAATTTTTTTTTATGATACACACTTGGATAATTAAA [CACACA_site562]	6.22
TTATTATATATTTTATTTATTAATAGTATATATTAT [TGCATGCA_negctrl_site155]	5.86
ATATTTTATTTATATACACACACATATATATATTAT [CACACA_site8177]	7.22
TTCTTTATATACAAACCAAAATATTATGTATAATAA [CACACA_negctrl_site15]	6.12
CTTTATATAAAATAAAGTACATAAATTATGATATAT [XGTACX_site3699]	6.63
ATACATATAATATATGCATGTACCAATCAAATATAT [TGCATGCA_site192]	6.46
TTATTCTAGTAGTGTGTGCGCATGGACAATGCAATA	7.48
TATATATCGTTATATACACACATGTATATAAAAAAT [CACACA_site7501]	6.5
TATAAACATAAATATACACACAAACATATATGTATT [CACACA_site8324]	6.68
AGACATATAATATATACACACATATATATATATATA [CACACA_site1066]	9.29
CGTTTCCCCAATGGTTGTACAATATATATATATATA [XGTACX_site8641]	9.12
AAGAAAAAATAAAGCACACAAATATTTTAAAAACAC [CACACA_site3325]	7.12
TTATTTATAATGTTGTGTACATATATGAATATACCA [XGTACX_site3111]	6.38
TATTTTACGTATTGTTGTACTTGAAACAAATATACA [XGTACX_site8778]	6.31
TTTTTTCAATTGGAAATTATTTTACAATGAAGGGTA [XGTACX_negctrl_site469]	6.31
ACATATTTAAAAACATGTACAAATATATTTATAATT [XGTACX_site661]	6.52
AAGGAAGATATATACACACATACAAATATATATATA [CACACA_site2181]	8.6

Sequence	gcPBM binding intensity (ln)
TGTAATGTTTACAACACACAAATTAGAAATACAAAA [CACACA_site6924]	6.46
TTGTGTTTTATTATTTTATTATTACTATTATAATGT [GTGCAC_negctrl_site484]	6.77
TAAAAATGGGTATGTACACACTTTATTTTTAATACA [CACACA_site5404]	6.26
ATAAAACATAAATACATACACACATAATATATATTA [CACACA_site110]	6.63
AAAAAAAAAAAACACACACACAAATACAAATGGTAA [CACACA_site1720]	6.64
TTCAATAGGTATAATTGTACTTAATAATATATTGTT [XGTACX_site8363]	6.3
AATACATATCAAAGCTGTACAAAGTAAATTTTACTT [XGTACX_site3525]	6.64
AAGTTATTGATATATACACACAAATATAAATAATAT [CACACA_site6695]	6.53
CTTAGGTTAAAAGTGTGTACATAAAAACATATATAA [XGTACX_site2213]	6.95
TACTATTATAAATATGTGCACTTCAATAATATACTA	9.53
TAAATAAATTATTTTCGTACTTATTTATTTTAATTA [XGTACX_site283]	6.16
ATAAGAAAAAGACACACACACAAAAAAAAAAAAAAA [CACACA_site2828]	6.54
TAAAATATTATTTATTTACACACCAATCTTCTTTTC [CACACA_site9320]	6.24
ATATAATATTTATATGCACACTTTTCTATATATAAG [CACACA_site6100]	8.84
TCGTATTTAAAATGTAGTACATAATTTGAAAAATAA [XGTACX_site5832]	6.24
TAATGGTTATCACTAACATGCAGTAATATTATATAG [TGCATGCA_site176]	6.2
ATATATATATGTATATGTACATATATATGGTAACTC [XGTACX_site681]	8.37
AAAAGAAAAAAAAAAAAAAAAAAAATTAAAATATAA [CACACA_negctrl_site17]	5.65
TTTTTTCTTTTTTTTTGTACATATAATATTTATGTT [XGTACX_site302]	6.5
ATACATTCAATGAAATGTACGTTTATTTACAGAAGA [XGTACX_site2999]	6.28
